Results: PubChem BioAssay AID504832 (National Center for Advancing Translational Sciences (NCATS), 2011)
The campaign covered roughly 310,000 compounds. About 18,000 (5.8%) were called active. The shares of active, inactive and inconclusive entries below differ from those in the screen. The call rests on the fitted dose curve; in most records, active means well fitted inhibition curve with a large enough effect; inconclusive means small, poorly fitted or top-dose-only effect, or another doubt; inactive means no such curve, though single readings can be large or run the other way. Potencies of inconclusive entries are left out as doubtful fits.

Assay: Primary qHTS for delayed death inhibitors of the malarial parasite plastid, 48 hour incubation
Settings: P. falciparum luciferase growth in erythrocytes; series mostly up to 28.7 µM
Outline: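 Cell-based growth assay: transgenic P. falciparum expressing firefly luciferase, cultured in red cells within RPMI 1640 containing 0.5% w/v Albumax, 24 mM bicarbonate and gentamycin. A drop in luciferase activity indicates inhibition.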
Potency means the concentration at half of the fitted maximal effect; tags describe the fitted curve by direction and shape.

Question: Which Potency does the source give for `CC(=O)c1ccc(S(=O)(=O)N2CCN(C(C)=O)CC2)cc1` here?
Answer: inactive

Question: For `C=CCN(CC=C)Cc1c(O)ccc2c(=O)c(-c3ccccc3)coc12`, which Potency is on record?
Answer: inconclusive [inhibitor, single point]

Question: Which Potency does the source give for `CC(C)(C)NC(=O)NC(=O)COC(=O)c1cccc(OC(F)F)c1` here?
Answer: inactive

Question: For `Cc1ccc(CCNC(=O)C2CCN(S(=O)(=O)c3ccc4c(c3)oc(=O)n4C)CC2)cc1`, which Potency is on record?
Answer: inactive

Question: With `Cc1ccccc1CNC(=O)CC1C(=O)NCCN1Cc1c(F)cccc1Cl` (stereo not given) as the compound, how does the Potency read?
Answer: active: 0.828 µM

Question: Which Potency does the source give for `COc1cccc(CNC(=O)CCC2CCCN(Cc3cc(Cl)ccc3O)C2)c1` (stereo not given) here?
Answer: inactive

Question: Which Potency does the source give for `CCNc1ccc(C(=O)OCC(=O)N2c3ccccc3NC(=O)C2(C)C)cc1[N+](=O)[O-]` here?
Answer: inconclusive [inhibitor, partial curve]

Question: For `COC(=O)c1ccc(NC(=O)COc2ccc([N+](=O)[O-])cc2)cc1`, which Potency is on record?
Answer: inconclusive [inhibitor, full curve]

Question: With `O=C(NNC(=O)C12CC3CC(CC(C3)C1)C2)[C@@H]1C[C@H]1c1ccccc1` as the compound, how does the Potency read?
Answer: inactive

Question: Which Potency does the source give for `Cc1ccc(Nc2ccc(S(=O)(=O)N3CCOCC3)cc2[N+](=O)[O-])c(C)c1` here?
Answer: inconclusive [inhibitor, partial curve, poor fit]

Question: With `CCOC(=O)c1[nH]c2ccc(OC)cc2c1NC(=O)C(C)N1CCC2(CC1)OCCO2` (stereo not given) as the compound, how does the Potency read?
Answer: inconclusive [inhibitor, single point]

Question: With `COc1ccc(S(=O)(=O)N2CCN(C(=O)/C=C/c3ccco3)CC2)cc1` as the compound, how does the Potency read?
Answer: inconclusive [inhibitor, partial curve, poor fit]

Question: Which Potency does the source give for `CCOC(=O)c1c(NC(=S)Nc2ccc(C)cc2)sc2c1CCC2` here?
Answer: inconclusive [inhibitor, single point]

Question: Which Potency does the source give for `Cc1ccc(S(=O)(=O)c2nc(-c3ccc(F)cc3)oc2SCC(N)=O)cc1` here?
Answer: inconclusive [inhibitor, partial curve]

Question: For `Cc1ccccc1Cn1cnc2ccccc2c1=O`, which Potency is on record?
Answer: inactive

Question: With `CCN(CC)S(=O)(=O)c1cccc(NC(=O)CN(C)C2CCCCC2)c1` as the compound, how does the Potency read?
Answer: inconclusive [inhibitor, single point]

Question: Which Potency does the source give for `CCOC(=O)C1=C(COC(=O)CNC(=O)c2ccc(Cl)cc2Cl)NC(=O)NC1C` (stereo not given) here?
Answer: inactive

Question: For `CC(=O)N1C=CN(C(C)=O)C(c2cn(C)c3ccccc23)C1c1cn(C)c2ccccc12` (stereo not given), which Potency is on record?
Answer: active: 3.29 µM

Question: For `CCOC(=O)CS(=O)(=O)c1ccccc1`, which Potency is on record?
Answer: active: 2.94 µM

Question: For `CCOC(=O)c1cn(CC)c2ccc(S(=O)(=O)N3CCC(C)CC3)cc2c1=O`, which Potency is on record?
Answer: inconclusive [inhibitor, partial curve, poor fit]

Question: With `CC(OC(=O)C1CCCCC1)C(=O)Nc1cccc([N+](=O)[O-])c1` (stereo not given) as the compound, how does the Potency read?
Answer: inconclusive [inhibitor, single point]

Question: Which Potency does the source give for `CCCCCNc1nc(-c2ccccc2)nc(-n2ccnc2)n1` here?
Answer: inconclusive [inhibitor, partial curve]

Question: With `O=C(CNS(=O)(=O)c1cccs1)N1CCCC1` as the compound, how does the Potency read?
Answer: inactive

Question: For `COc1ccccc1NC(=O)COC(=O)c1cn(C)c2ccccc12`, which Potency is on record?
Answer: inconclusive [inhibitor, single point]

Question: For `COc1ccc(S(=O)(=O)N2CCN(C(=O)CSC(=S)N3CCCC3)CC2)cc1`, which Potency is on record?
Answer: inconclusive [inhibitor, single point]

Question: With `Cc1nn(-c2ccccc2)c2c1CC1(C(=O)N(C)C(=O)N(C)C1=O)C1CCCCN21` (stereo not given) as the compound, how does the Potency read?
Answer: inconclusive [inhibitor, single point]

Question: For `c1cc2nc(C34CC5CC(CC(C5)C3)C4)[nH]c2cn1`, which Potency is on record?
Answer: inconclusive [inhibitor, partial curve]

Question: With `CCOC(=O)N/N=C/C=C/c1ccccc1[N+](=O)[O-]` as the compound, how does the Potency read?
Answer: inactive

Question: Which Potency does the source give for `CC(=O)Nc1ccc(S(=O)(=O)NNC(=O)COc2cc(C)ccc2C(C)C)cc1` here?
Answer: inconclusive [inhibitor, single point]

Question: With `COC(=O)c1ccc(NC(=O)CSc2nc(=O)n3cccc(C)c3n2)cc1` as the compound, how does the Potency read?
Answer: inactive

Question: With `O=C(/C=C/c1ccco1)Oc1cc(Br)cc(/C=N/NC(=O)c2ccccc2O)c1` as the compound, how does the Potency read?
Answer: active: 1.85 µM

Question: For `Oc1cccc(Nc2nc(-c3ccccc3Cl)nc3ccccc23)c1`, which Potency is on record?
Answer: inconclusive [inhibitor, partial curve]

Question: With `Cc1cccc(NC(=O)CN2CCN(C(=O)c3oc4c(Cl)cccc4c3C)CC2)c1C` as the compound, how does the Potency read?
Answer: inconclusive [inhibitor, partial curve, poor fit]

Question: Which Potency does the source give for `CC1(C)C(/C=C/C=C/C=C/C=C2\N(CCCCS(=O)(=O)O)c3ccc4ccccc4c3C2(C)C)=[N+](CCCCS(=O)(=O)[O-])c2ccc3ccccc3c21` here?
Answer: inconclusive [inhibitor, single point]

Question: For `CC(C)(C)n1ncc2c(=O)n(Cc3c(Cl)cccc3Br)cnc21`, which Potency is on record?
Answer: inconclusive [inhibitor, partial curve, poor fit]

Question: For `Cc1ccnc2nc(C(=O)OCCOc3ccc(Cl)cc3)nn12`, which Potency is on record?
Answer: inactive

Question: With `O=C(Nc1ccc(OC(F)(F)F)cc1)C1CC(=O)N(Cc2ccco2)C1` (stereo not given) as the compound, how does the Potency read?
Answer: inactive

Question: With `Cn1cc(CN2CCCC(CO)C2)c(-c2ccc(Oc3ccccc3)cc2)n1` (stereo not given) as the compound, how does the Potency read?
Answer: inconclusive [inhibitor, partial curve, poor fit]

Question: Which Potency does the source give for `CCNc1nc(NCc2ccccc2)nc(Oc2ccc(=O)[nH]n2)n1` here?
Answer: active: 1.04 µM

Question: With `CCOC(=O)c1ccc(NC(=O)CCSCCc2ccccn2)cc1` as the compound, how does the Potency read?
Answer: inconclusive [inhibitor, full curve, poor fit]

Question: For `O=C(c1ccc(Br)s1)N1CCN(c2ccccn2)CC1`, which Potency is on record?
Answer: inconclusive [inhibitor, single point]

Question: For `COc1cccc(NCc2cc(=O)oc3cc(-c4ccccc4)c(O)cc23)c1`, which Potency is on record?
Answer: inconclusive [inhibitor, single point]

Question: For `NC(=O)C1(NC(=O)[C@@H]2CC3(CC(c4cccc(NC(=O)[C@@H]5CCC(=O)N5)c4)=NO3)CN2C(=O)c2ccccc2)CC1` (stereo not given in full), which Potency is on record?
Answer: inactive

Question: For `COc1cccc(NC(=O)CSC(N)=O)c1`, which Potency is on record?
Answer: inconclusive [inhibitor, single point]

Question: Which Potency does the source give for `CCCCn1nnnc1NCc1cc(OC)c(OC)c(OC)c1` here?
Answer: inconclusive [inhibitor, single point]

Question: Which Potency does the source give for `Cc1cccn2c(Nc3ccccc3)c(-c3ccccn3)nc12` here?
Answer: inconclusive [inhibitor, single point]

Question: Which Potency does the source give for `Cn1c(=O)c2c(ncn2CC(=O)OCC(=O)Nc2cc(Cl)ccc2Cl)n(C)c1=O` here?
Answer: inactive

Question: For `Cn1c(SC(C(=O)Nc2ccc(F)cc2)c2ccccc2)nc2ccccc21` (stereo not given), which Potency is on record?
Answer: inconclusive [inhibitor, single point]

Question: For `O=C(CCc1[nH]c2ccccc2c1Sc1ccccc1)NCCO`, which Potency is on record?
Answer: inconclusive [inhibitor, partial curve, poor fit]

Question: For `CCOC(=O)C1=C(N)n2c(s/c(=C\c3ccco3)c2=O)=C(C(=O)OC(C)C)C1c1ccco1` (stereo not given), which Potency is on record?
Answer: active: 2.94 µM

Question: With `CC(C)(C)c1ccc(C(=O)CC(=O)c2cc(Cl)ccc2O)cc1` as the compound, how does the Potency read?
Answer: active: 4.65 µM

Question: Which Potency does the source give for `CCCNC(=O)c1c(N)n(Cc2ccc3c(c2)OCO3)c2nc3ccccc3nc12` here?
Answer: inconclusive [inhibitor, single point]

Question: For `O=C(CSc1nnc(-c2ccc(Cl)cc2)n1Cc1ccco1)Nc1ccc2c(c1)OCCO2`, which Potency is on record?
Answer: inconclusive [inhibitor, partial curve, poor fit]

Question: For `COc1ccc2nc(-c3ccccc3)cc(C(=O)OCC(=O)N3CCCCC3)c2c1`, which Potency is on record?
Answer: active: 11.7 µM

Question: Which Potency does the source give for `C=CCNCc1cc(=O)n2c(-c3ccccc3)csc2n1` here?
Answer: inactive

Question: Which Potency does the source give for `CC1CC(C)CN(C(=O)C(NS(=O)(=O)c2ccc(Br)s2)c2ccccc2)C1` (stereo not given) here?
Answer: inconclusive [inhibitor, partial curve]

Question: For `Cc1cccc(-c2cc3nc4c(c(N5CCOCC5)n3n2)CCCC4)c1`, which Potency is on record?
Answer: inconclusive [inhibitor, single point]

Question: With `O=C(CSc1ccc(Br)cc1)Nc1ccccc1N1CCOCC1` as the compound, how does the Potency read?
Answer: inconclusive [inhibitor, partial curve, poor fit]

Question: With `Cc1c(NC(=O)CN2CCN(C(c3ccccc3)c3ccccc3)CC2)c(=O)n(-c2ccccc2)n1C` as the compound, how does the Potency read?
Answer: active: 10.4 µM

Question: Which Potency does the source give for `C/C(N)=C(/C#N)C(=O)CSc1nc2ccccc2c(=O)n1CCCOC(C)C` here?
Answer: inconclusive [inhibitor, partial curve, poor fit]

Question: Which Potency does the source give for `O=C(Nc1ccncc1)c1ccc(S(=O)(=O)Nc2ccccc2)cc1` here?
Answer: inconclusive [inhibitor, single point]

Question: Which Potency does the source give for `CCOc1ccc(C(=O)OCC(=O)Nc2cc(C)on2)cc1OCC` here?
Answer: inactive

Question: For `O=C(COC(=O)c1cnccn1)c1ccc(Cl)c([N+](=O)[O-])c1`, which Potency is on record?
Answer: inactive

Question: Which Potency does the source give for `O=C(CSc1nnc(-c2ccccc2)n1C1CCCCC1)N1CCCC1` here?
Answer: inconclusive [inhibitor, single point]

Question: With `CCSC1(SCC)N=C(N)C2(C#N)C(c3ccc(F)cc3)C12C#N` (stereo not given) as the compound, how does the Potency read?
Answer: inactive

Question: For `CCOC(=O)Cn1nc(-c2ccccc2)c2cnc3ccc(CC)cc3c21`, which Potency is on record?
Answer: inconclusive [inhibitor, partial curve, poor fit]

Question: With `COC(=O)c1c(NC(=O)c2ccco2)sc2c1CCN(C(C)C)C2` as the compound, how does the Potency read?
Answer: inactive

Question: For `OC(CNCc1ccccn1)c1ccccc1` (stereo not given), which Potency is on record?
Answer: inactive

Question: For `O=c1oc2c(CN3CCOCC3)c(O)ccc2c2c1CCCC2`, which Potency is on record?
Answer: inconclusive [inhibitor, single point]

Question: With `Cc1onc(-c2ccc(Cl)cc2Cl)c1-c1csc(N/N=C/c2ccccc2Cl)n1` as the compound, how does the Potency read?
Answer: active: 6.57 µM
